Series [1] can be described thus: Coupling product components (DAR) by HIC-HPLC. Particulars: lot CY20210202, before purification. Here is the method:
In this example, analytical hydrophobic interaction chromatography (HIC) was used to analyze the protein sample for purity and hydrophobicity. […] The program for HPLC was set: a linear gradient from 100% buffer A (25 mM phosphate buffer, 1.5 M ammonium sulfate ((NH4)2SO4), pH 7.0-7.2) to 100% buffer B (20 mM phosphate buffer, 20% isopropyl alcohol (IPA), pH 7.0-7.2) over about 22 min; flow rate: 0.7 mL/min; protein sample concentration: 1 mg/mL; and injection volume: 20 μL. The detection wavelength was 280 nm. Operation was performed at room temperature. After being recorded, the chromatogram was integrated using ChemStation software and relevant data were calculated. An analysis was generated, with the retention time of the components with different molecular sizes in the sample reported; the number of coupling molecules carried by different components of the coupling product could be inferred by different retention time.

Series [2] can be described thus: Molecular weight and coupling product components (DAR) by LC-MS. Conditions: non-reduced sample, lot CY20210202, before purification.
Series [3] concerns the target T1, CHOK1-hCD47 cells highly expressing human CD47 (Homo sapiens, UniProt Q08722).
T1 construct: host or cells: CHOK1-hCD47 (CHO-K1)
Kind of series: FACS binding to cells highly expressing CD47. Particulars: flow cytometry FACS. As to the method:
The binding ability of the antigen-binding protein to CHOK1-hCD47 cells (GenScript, M00581) highly expressing human CD47 was determined by flow cytometry FACS. Specifically, the cells were digested and resuspended in a DMEM complete medium, and the cell density was adjusted to 1×10^6 cells/mL. The cells were seeded in a 96-well V-bottom plate (Corning, #3894) at 100 µL/well, followed by the addition of test binding proteins diluted in a 3-fold gradient at a concentration that was 2 times the final concentration, each at 100 μL/well. The cells were incubated at 4° C. for 1 h away from light. Thereafter, the cells in each well were rinsed twice with 100 μL of pre-cooled PBS, and centrifuged at 500 g at 4° C. for 5 min, and then the supernatant was discarded. Thereafter, a fluorescent secondary antibody (Alexa Fluor 488-conjugated AffiniPure Goat Anti-Human IgG, Fcγ Fragment Specific, Jackson ImmunoResearch Inc., #109-545-098, diluted in a 1:500 ratio) was added at 100 μL/well, and the plate was incubated at 4° C. for 30 min away from light. The cells in each well were then rinsed twice with 100 μL of pre-cooled PBS and centrifuged at 500 g at 4° C. for 5 min, and then the supernatant was discarded. […] Fluorescence signal values were read using a BD FACS CANTOII flow cytometer, and the data were processed and analyzed using FlowJo v10 (FlowJo, LLC) software.
On the technique in general: Flow cytometry measures light scatter and fluorescence of single cells or particles in a stream.

A further series concerns NCI-H929 cells. Kind of series: Cytotoxic killing experiment (Example 7.5), NCI-H929. Format: cell-based, human. Particulars: 72 h, CellTiter-Glo; PR001046-ADC at 0.1 μg/mL and above; PR001046 0.01-1 μg/mL; mc-vc-PAB-MMAE 0.1-10 nM. The source says: The data were processed and analyzed by plotting using a GraphPad Prism 8 software. In this example, multiple groups of different PR001046-ADC samples were used, including samples containing different percentages of DAR=2 (D2) components before or after purification.
Background: Cellular ATP, detected with luciferase, serves as a proxy for viable cell number.

The subject of series [4] is mixed cells of NCI-H929 and SNU-16. Kind of series: Cytotoxic killing experiment (Example 7.5), mixed NCI-H929 + SNU-16. The series is classed as cell-based, human. Particulars: 72 h, CellTiter-Glo; 0.1 μg/mL and above. As to the method:
(§1) The NCI-H929 cells and SNU-16 cells were seeded in 96-well plates (Perkin Elmer, #6005225) respectively, with the following seeded cell numbers: 10000 cells/50 PL/well (NCI-H929), 5000 cells/50 μL/well (SNU-16), 10000 NCI-H929 cells and 5000 SNU-16 cells/100 PL/well mixture (NCI-H929+SNU-16). Then, a test sample serially pre-diluted was added at 50 μL/well, with concentrations of 1 μg/mL, 0.1 μg/mL and 0.01 μg/mL for PR001046 and PR001046-ADC, and concentrations of 10 nM, 1 nM and 0.1 nM for mc-vc-PAB-MMAE. Thereafter, the plates were incubated at 37° C. with 5% CO2 for 72 h, a CellTiter-Glo cell viability detection reagent (Promega, #G7573) was added, then the plates were incubated at room temperature for at least 10 min to obtain stable luminescence signals, and the luminescence values were detected using a microplate reader. The data were processed and analyzed by plotting using a GraphPad Prism 8 software. In this example, multiple groups of different PR001046-ADC samples were used, including samples containing different percentages of DAR=2 (D2) components before or after purification.

The target of series [5] is T2, HEK293T-hBCMA cells highly expressing human BCMA (Homo sapiens, UniProt Q02223).
T2 construct: host or cells: HEK293T-hBCMA
T2 sequence (Q02223 1-184): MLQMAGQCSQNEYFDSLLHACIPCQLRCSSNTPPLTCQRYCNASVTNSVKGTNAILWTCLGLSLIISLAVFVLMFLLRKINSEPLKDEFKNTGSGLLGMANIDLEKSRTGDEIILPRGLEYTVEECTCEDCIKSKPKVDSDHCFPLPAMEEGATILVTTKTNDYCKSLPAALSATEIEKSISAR
Kind of series: FACS binding to HEK293T-hBCMA cells. Conditions: flow cytometry FACS. Here is the method:
(§2) Specifically, the cells were digested and resuspended in a DMEM complete medium, and the cell density was adjusted to 1×10^6 cells/mL. The cells were seeded in a 96-well V-bottom plate (Corning, #3894) at 100 μL/well, followed by the addition of test antibodies diluted in a 3-fold gradient at a concentration that was 2 times the final concentration, each at 100 μL/well. The cells were incubated at 4° C. for 1 h away from light. Thereafter, the cells in each well were rinsed twice with 100 μL of pre-cooled PBS, and centrifuged at 500 g at 4° C. for 5 min, and then the supernatant was discarded. Thereafter, a fluorescent secondary antibody (Alexa Fluor 488-conjugated AffiniPure Goat Anti-Human IgG, Fcγ Fragment Specific, Jackson ImmunoResearch Inc., #109-545-098, diluted in a 1:500 ratio) was added at 100 μL/well, and the plate was incubated at 4° C. for 30 min away from light. The cells in each well were then rinsed twice with 100 μL of pre-cooled PBS and centrifuged at 500 g at 4° C. for 5 min, and then the supernatant was discarded. Finally, the cells in each well were resuspended in 200 μL of pre-cooled PBS. Fluorescence signal values were read using a BD FACS CANTOII flow cytometer, and the data were processed and analyzed using FlowJo v10 (FlowJo, LLC) software.

The next series deals with SNU-16 cells. Kind of series: Cytotoxic killing experiment (Example 7.5), SNU-16. Format: cell-based, human. Conditions: 72 h, CellTiter-Glo. Here is the method:
as §1

Series [6] deals with T3, NCI-H929 cells highly expressing human BCMA (Homo sapiens, UniProt Q02223).
T3 construct: tumor cells NCI-H929 (ATCC, CRL-9068) highly expressing human BCMA; host or cells: NCI-H929
T3 sequence (Q02223 1-184): T2 sequence (Q02223 1-184)
The series is described as follows: FACS binding to NCI-H929 cells. Particulars: flow cytometry FACS. As to the method:
as §2
This example further utilized the method described in 0 to study the binding ability of the HCAb antibody PR004433 and a variant molecule thereof to NCI-H929 cells (ATCC, CRL-9068) highly expressing human BCMA.

Series [7] in a line: Protein purity and polymers by SEC-HPLC. Conditions: purified antigen-binding protein; PR004433 from CHO, variants from HEK293. As to the method: In this example, analytical size-exclusion chromatography (SEC) was used to analyze the protein sample for purity and polymer form. An analytical chromatography column TSKgel G3000SWxl (Tosoh Bioscience, #08541, 5 μm, 7.8 mm×30 cm) was connected to a high performance liquid chromatography HPLC (Agilent Technologies, Agilent 1260 Infinity II) and equilibrated with a PBS buffer at room temperature for at least 1 h. A proper amount of the protein sample (at least 10 μg) was filtered through a 0.22 μm filter membrane and then injected into the system, and an HPLC program was set: the sample was passed through the chromatography column with PBS buffer at a flow rate of 1.0 mL/min for a maximum of 25 min. The detection wavelength was 280 nm. Operation was performed at room temperature. After being recorded, the chromatogram was integrated using ChemStation software and relevant data were calculated. An analysis was generated, with the retention time of the components with different molecular sizes in the sample reported.
On the technique in general: Size exclusion chromatography separates by hydrodynamic size, large species first.

Series [8] is described as follows: Melting temperature (Tm1) of proteins by DSF. The series is classed as physicochemical. Conditions: minimum melting temperature. Here is the method: Differential scanning fluorimetry (DSF) is a commonly used high-throughput method for determining the thermostability of proteins. In this method, changes in the fluorescence intensity of the dye that binds to unfolded protein molecules were monitored using a real-time quantitative fluorescence PCR instrument to reflect the denaturation process of the protein and thus to reflect the thermostability of the protein. In this example, the melting temperature (Tm) of a protein molecule was measured by DSF. 10 μg of protein was added to a 96-well PCR plate (Thermo, #AB-0700/W), followed by the addition of 2 μL of 100× diluted dye SYPRO™ (Invitrogen, #2008138), and then the mixture in each well was brought to a final volume of 40 μL by adding buffer. […] The FRET scanning mode was used and data analysis was performed using Bio-Rad CFX Maestro software to calculate the Tm of the sample.
The antigen-binding protein derived from PR004433 in Table 0-3 was expressed and purified according to the method described in 0, and the SEC-HPLC method described in 0 was used to analyze the purity and the DSF method described in 0 was used to determine the minimum melting temperature (Tm1). It can be seen that after the hinge region sequence of HCAb PR004433 is replaced with variant sequences of various linker peptides, and Cys6 and Cys2 are separated by at least 3 other amino acids, the variant sequences derived from PR004433 can be effectively expressed, and the expression yield and thermostability Tm1 of the vast majority of variant molecules are not affected.

For series [9], the system named is SNU-16 cells not expressing human BCMA. Kind of series: FACS binding to BCMA-negative SNU-16 cells. Conditions: flow cytometry FACS. As to the method:
as §2

Changes are numbered by the printed parent chain. “Also recorded” adds a separate entry of the source.

T1 sequence (Q08722 19-323): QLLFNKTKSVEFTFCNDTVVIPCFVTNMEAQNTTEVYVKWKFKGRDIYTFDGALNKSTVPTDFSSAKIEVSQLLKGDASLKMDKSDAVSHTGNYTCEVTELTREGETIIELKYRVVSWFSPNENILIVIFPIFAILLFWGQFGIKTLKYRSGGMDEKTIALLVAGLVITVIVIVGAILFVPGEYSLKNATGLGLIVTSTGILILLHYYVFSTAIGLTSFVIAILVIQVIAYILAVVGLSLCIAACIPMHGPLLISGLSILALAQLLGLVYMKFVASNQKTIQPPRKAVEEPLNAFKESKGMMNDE

B1: PR006345-ADC (conjugate)
chain: EEELQIIQPDKSVLVAAGETATLRCTITSLFPVGPIQWFRGAGPGRVLIYNQRQGPFPRVTTVSDTTKRNNMDFSIRIGNITPADAGTYYCIKFRKGSPDDVEFKSGAGTELSVRAKPSGGGAS[not shown - human IgG1 Fc]
As for B1, in series [1], the “Peak area % of DAR = 0 component peak” value turned out to be 14.66%, the “Peak area % of DAR = 1 component peak” value worked out at 2.67%, the “Peak area % of DAR = 2 component peak” value is recorded as 75.37% and the “Peak area % of DAR = 4 component peak” value amounted to 7.30%. In addition, in [2], the “Content of DAR = 0 component” value is 3%, the “Content of DAR = 2 component” value came out at 89% and the “Content of DAR = 4 component” value stood at 2%. Moreover, the “binding activity to CD47 (CHOK1-hCD47 cells)” value in [3] is given as “strong specific binding activity”.

B2: PR001046-ADC (conjugate)
heavy: EVQLVETGGGLIQPGGSLRLSCAASGFTVSDNYMTWVRQAPGKGLEWVSVIFSGGNTYYADSVKGRFTISRDNAKNTLYLQMNSLRAEDTALYYCARRNYDDTRGTDVFDIWGQGTMVTVSS[not shown - human IgG1 Fc]
As for B2, in the series with NCI-H929 cells, the “cell killing of BCMA-positive cells NCI-H929” value is listed as “can specifically kill”. Further, in series [4], the “cell killing of mixed cells of NCI-H929 and SNU-16” value is reported as “can specifically kill”. The “binding activity to HEK293T-hBCMA cells” value in series [5] is recorded as “strong specific binding activity”. In the series with SNU-16 cells, the “cell killing of BCMA-negative cells SNU-16” value is given as “cannot kill”.

B3: PR004433: anti-BCMA HCAb antibody, SEQ ID NO: 70 (antibody)
heavy: B2 heavy with N32S, N56R, A60S
With B3, in [6], the “binding ability to NCI-H929 cells” value was “strong specific binding; also recorded: can specifically bind”. The “SEC-HPLC purity (%)” value in series [7] was found to be 98.86%. In addition, in series [5], the “binding activity to HEK293T-hBCMA cells” value was “strong specific binding”. Besides, the “DSF Tm1 (° C.)” value in series [8] amounted to 55.8 °C. Moreover, the “binding to BCMA-negative cells SNU-16” value in series [9] was “cannot bind”.
